Data from patent US11104968B2, “Site-specific conjugation of linker drugs to antibodies and resulting ADCS” (Byondis B.V., priority 2014, dated 2021).

What was measured:
[1] = system: PSMA-positive cell line LNCaP-C4.2; experiment: In vitro cytotoxicity, PSMA-positive cell line; format: cell-based, human; settings: anti-PSMA-vc-seco-DUBA ADCs, at the highest concentration tested (~100 nM)
[2] = High molecular weight species (aggregates) of ADCs; format: physicochemical; settings: vc-seco-DUBA ADCs, amount of aggregates formed
[3] = system: PSMA-negative DU-145 cells; experiment: Enzymatic cleavage by cathepsin B, cytotoxicity of released drug on DU-145; format: cell-based; settings: 4 hours pre-incubation with cathepsin B
[4] = system: LNCaP C4-2 prostate cancer xenograft; experiment: LNCaP C4-2 prostate cancer xenograft model; format: in vivo, male CB17-SCID mice
[5] = Analytical HIC, relative hydrophobicity of ADCs; format: physicochemical; settings: vc-seco-DUBA ADCs; (RTDAR2-RTDAR0)/(RTDAR2,wt-ADC-RTDAR0,wt-ADC); double mutants are DAR4 species (RT wt DAR4 = 12.2)
[6] = system: PA-1 ovarian cancer xenograft; experiment: PA-1 ovarian cancer xenograft model; format: in vivo, female Balb/c nude mice; settings: single i.v. injection 3 mg/kg, FIG. 4A
[7] = system: LNCaP-C4.2; experiment: Enzymatic cleavage by cathepsin B, cytotoxicity of released drug on LNCaP-C4.2 as 5T4-negative line; format: cell-based, human; settings: 4 hours pre-incubation with cathepsin B, LNCaP-C4.2 used as the 5T4-negative cell line
[8] = system: 5T4-negative SK-MEL-30 cells; experiment: Enzymatic cleavage by cathepsin B, cytotoxicity of released drug on SK-MEL-30; format: cell-based; settings: 4 hours pre-incubation with cathepsin B
[9] = 6 days, CellTiter-Glo, read-out: IC50 (nM), free drug cleaved by cathepsin B

B1: ADC-HC41 (SYD1091): engineered cysteine anti-PSMA (VH S41C) antibody conjugated to vc-seco-DUBA (conjugate)
heavy: EVQLVQSGAEVKKPGASVKISCKTSGYTFTEYTIHWVKQACGKGLEWIGNINPNNGGTTYNQKFEDRATLTVDKSTSTAYMELSSLRSEDTAVYYCAAGWNFDYWGQGTTVTVSS[human IgG1 constant region not shown]
light: DIVMTQSPSSLSASVGDRVTITCKASQDVGTAVDWYQQKPGKAPKLLIYWASTRHTGVPDRFTGSGSGTDFTLTISSLQPEDFADYFCQQYNSYPLTFGGGTKLEIKRTVAAPSVFIFPPSDEQLKSGTASVVCLLNNFYPREAKVQWKVDNALQSGNSQESVTEQDSKDSTYSLSSTLTLSKADYEKHKVYACEVTHQGLSSPVTKSFNRGEC
% efficacy [1]: 78%
HMW (%) [2]: 1.4%
% efficacy, free drug cleaved by cathepsin B [3]: 59%
IC50 [3, 9]: ~5 nM
In vivo efficacy (tumour volume) ([4]; single i.v. injection 2 mg/kg, FIG. 2A): significantly better than the comparator SYD1035 and is better than the native, non-engineered SYD998
In vivo efficacy (tumour volume) ([4]; single i.v. injection 10 mg/kg, FIG. 2B): difference between the comparator SYD1035 and SYD1091 is even more pronounced
Effect on body weight (restoration after cachexia) ([4]; single i.v. injection 10 mg/kg, FIG. 3): much faster restoration of the body weights
Relative hydrophobicity [5]: 0.6

B2: H8-HC41: engineered cysteine anti-5T4 (VH P41C) H8 antibody conjugated to vc-seco-DUBA (conjugate)
heavy: QVQLVQSGAEVKKPGASVKVSCKASGYSFTGYYMHWVKQSCGQGLEWIGRINPNNGVTLYNQKFKDRVTMTRDTSISTAYMELSRLRSDDTAVYYCARSTMITNYVMDYWGQGTLVTVSS[human IgG1 constant region not shown]
light: DIVMTQSPDSLAVSLGERATINCKASQSVSNDVAWYQQKPGQSPKLLISYTSSRYAGVPDRFSGSGSGTDFTLTISSLQAEDVAVYFCQQDYNSPPTFGGGTKLEIKRTVAAPSVFIFPPSDEQLKSGTASVVCLLNNFYPREAKVQWKVDNALQSGNSQESVTEQDSKDSTYSLSSTLTLSKADYEKHKVYACEVTHQGLSSPVTKSFNRGEC
In vivo efficacy (tumour volume) [6]: clearly more active
% efficacy, free drug cleaved by cathepsin B [7]: 98%
IC50 ([7]; read-out: IC50 (nM), free drug cleaved by cathepsin B): 1.27 nM
HMW (%) [2]: 0.4%
Relative hydrophobicity [5]: 0.3

B3: H8-HC40: anti-5T4 H8 antibody HC S40C conjugated to vc-seco-DUBA (conjugate)
heavy: QVQLVQSGAEVKKPGASVKVSCKASGYSFTGYYMHWVKQCPGQGLEWIGRINPNNGVTLYNQKFKDRVTMTRDTSISTAYMELSRLRSDDTAVYYCARSTMITNYVMDYWGQGTLVTVSS[human IgG1 constant region not shown]
light: DIVMTQSPDSLAVSLGERATINCKASQSVSNDVAWYQQKPGQSPKLLISYTSSRYAGVPDRFSGSGSGTDFTLTISSLQAEDVAVYFCQQDYNSPPTFGGGTKLEIKRTVAAPSVFIFPPSDEQLKSGTASVVCLLNNFYPREAKVQWKVDNALQSGNSQESVTEQDSKDSTYSLSSTLTLSKADYEKHKVYACEVTHQGLSSPVTKSFNRGEC
% efficacy, free drug cleaved by cathepsin B [8]: 93%
IC50 [8, 9]: 0.98 nM
HMW (%) [2]: 1.2%
Relative hydrophobicity [5]: 0.7
